# Reference: PubChem BioAssay AID485341 (National Center for Advancing Translational Sciences (NCATS), 2010)
# The whole screen tested about 330,000 compounds, of which about 1,700 (0.52%) were called active. The inconclusive results got no clear call from the source; some entries with a clear call stand among them for comparison. The call rests on the fitted dose curve; in most records, active means well fitted inhibition curve with a large enough effect; inconclusive means small, poorly fitted or top-dose-only effect; inactive means no such curve, though single readings can be large or run the other way. A potency beside an inconclusive call is a rough fit, not a confirmed value.
# Biological target: Beta-lactamase (Escherichia coli (strain K12)) (UniProt P00811)
# Assay: qHTS Inhibitors of AmpC Beta-Lactamase (assay without detergent); further: nearly all actives have a fitted effect of over 20% in size
# Settings: AmpC nitrocefin hydrolysis, absorbance 480 nm, 0.0001% Triton; series mostly up to 57.1 µM
# Procedure, shortened: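 AmpC (5.3 nM in the dispensed reagent) in 20 mM phosphate pH 7.0 with 0.01% (detergent screen) or 0.0001% Triton X-100 was preincubated with compounds for 15 min at room temperature. Nitrocefin was then added from an 800 uM solution, and hydrolysis was followed at 480 nm.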
# Potency means the concentration at half of the fitted maximal effect; tags describe the fitted curve by direction and shape.
# Sequence of UniProt P00811 (P00811 whole entry, looked up): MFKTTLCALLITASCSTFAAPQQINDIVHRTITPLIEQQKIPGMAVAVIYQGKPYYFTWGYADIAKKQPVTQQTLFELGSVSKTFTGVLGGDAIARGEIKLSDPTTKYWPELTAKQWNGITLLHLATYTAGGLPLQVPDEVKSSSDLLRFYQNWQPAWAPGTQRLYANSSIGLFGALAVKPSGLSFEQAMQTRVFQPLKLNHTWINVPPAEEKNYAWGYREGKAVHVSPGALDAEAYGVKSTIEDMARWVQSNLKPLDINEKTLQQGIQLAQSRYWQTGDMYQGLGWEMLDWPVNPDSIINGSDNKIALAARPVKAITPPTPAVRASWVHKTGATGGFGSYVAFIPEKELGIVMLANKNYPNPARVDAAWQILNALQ
row,SMILES,Potency
1,CCOc1ccc(C(=O)NC(=S)NC2CCCC2)cc1[N+](=O)[O-],active: 10 µM
2,CCOC(=O)CSc1nnc(CSc2nc3sc4c(c3c(=O)[nH]2)CCCC4)n1-c1ccccc1,inactive
3,Cc1ccc(CSc2nnc(CS(=O)Cc3ccc(Cl)cc3Cl)n2C)cc1 (stereo not drawn),"inconclusive: 8.91 µM [inhibitor, single point]"
4,COc1ccc(/C=N/NC(=S)Nc2ccccc2)cc1COc1ccccc1F,active: 14.1 µM
5,CC(=O)Nc1cccc(C(=O)OCC(=O)NCc2cc(C)c(O)c(C)c2)c1,"inconclusive: 39.8 µM [inhibitor, single point]"
6,O=C(Cn1c(=O)oc2cc(S(=O)(=O)N3CCCC3)ccc21)NCc1ccccn1,"inconclusive: 56.2 µM [inhibitor, partial curve, poor fit]"
7,CCOc1ccc(OCc2ccc(C(=O)N3CCCC3)o2)cc1,"inconclusive: 6.31 µM [inhibitor, single point]"
8,CC1(c2ccc(OCC#N)cc2)C=C(c2ccc(OCC#N)cc2)n2nc(C(F)(F)F)nc2N1 (stereo not drawn),"inconclusive: 7.08 µM [inhibitor, single point]"
9,CC1CCC(C(C)C)C(OC(=O)Cn2c(COc3ccccc3)[n+](C)c3ccccc32)C1 (stereo not drawn),inactive
10,O=C1CC(c2ccc(Cl)c([N+](=O)[O-])c2)c2ccc3ccccc3c2N1 (stereo not drawn),inactive
11,COc1cccc(C(=O)CSc2nnc(CNc3nc(-c4ccccc4)cs3)n2C)c1,"inconclusive: 5.62 µM [inhibitor, single point]"
12,CC(C)OC(=O)c1nnn(-c2nonc2N)c1CN1CCCCCC1,"inconclusive: 8.91 µM [inhibitor, single point]"
13,C=CCn1c(=O)c(C(=O)Nc2ccccc2C(=O)OCC)c(O)c2ccccc21,"inconclusive: 0.282 µM [inhibitor, full curve, poor fit]"
14,CCOc1cc2c(cc1OCC)C(C(=O)O)C(c1cc(OC)c(OC)c(OC)c1)N(C)C2=O (stereo not drawn),"inconclusive: 39.8 µM [inhibitor, single point]"
15,COc1ccc(CCn2c(SCC(=O)Nc3cc(C)on3)nc3ccsc3c2=O)cc1OC,active: 0.316 µM
16,COc1ccc(/C=C2\SC(=O)N(CCC(=O)Nc3ccc(S(=O)(=O)Nc4nccs4)cc3)C2=O)cc1,"inconclusive: 15.8 µM [inhibitor, partial curve]"
17,CCc1nnc(NC(=O)CC(CN(C)S(=O)(=O)c2ccccc2)c2ccccc2)s1 (stereo not drawn),active: 39.8 µM
18,COc1cc(/C=N/NC(N)=O)ccc1OCC(=O)Nc1ccc(C)c(C)c1,"inconclusive: 39.8 µM [inhibitor, single point]"
19,O=c1[nH]c(=O)n(CCC2=CCCCC2)c(O)c1/C=N/Nc1cccc2ccccc12,active: 28.2 µM
20,COc1ccccc1C(=O)OC(C)CN1CCN(C)CC1 (stereo not drawn),inactive
21,C/C(=N\NC(=O)c1cc(Br)ccc1O)c1ccccn1,"inconclusive: 7.08 µM [inhibitor, partial curve]"
22,CS(=O)(=O)N(CC(=O)Nc1ccc2c(c1)OCO2)Cc1ccc(Cl)cc1,active: 0.282 µM

row,SMILES,Potency
1,Cc1ccc(NC(=O)c2cc(S(=O)(=O)N(C)C)ccc2N2CCCC2)cc1S(=O)(=O)N(C)C,"inconclusive: 35.5 µM [inhibitor, single point]"
2,Nc1nc(Nc2ccccc2F)nc(N2CCOCC2)c1[N+](=O)[O-],inactive
3,O=C(O)Cn1cc(/C=N/Nc2ccc([N+](=O)[O-])cn2)c2ccccc21,inactive
4,COc1ccc(-c2[nH]c(-c3ccc(SC)cc3)nc2SCC(=O)Nc2nccs2)cc1,"inconclusive: 3.16 µM [inhibitor, full curve]"
5,O=C1N=C(N2CCN(c3cccc4ccccc34)CC2)S/C1=C/c1cccs1,inactive
6,COc1cccc(N2CC(NC(=O)c3cccc4ccccc34)CC2=O)c1 (stereo not drawn),"inconclusive: 39.8 µM [inhibitor, single point]"
7,O=C(CSc1nnc(NC(=O)c2ccccc2Cl)s1)Nc1ccc2c(c1)oc1ccccc12,"inconclusive: 31.6 µM [inhibitor, single point]"
8,CCOC(=O)C1=C(c2ccccc2)NC(=S)NC1c1ccc(Cl)cc1 (stereo not drawn),"inconclusive: 8.91 µM [inhibitor, partial curve]"
9,CC(=O)/C=C\c1cn(-c2ncc(C(F)(F)F)cc2Cl)c2ccccc12,"inconclusive: 2.51 µM [inhibitor, partial curve, poor fit]"
10,CC(=O)Nc1ccc(NC(=O)CSc2ccc(-c3ccco3)nn2)cc1,inactive
11,CCc1ccccc1NC(=S)NC1CC2CCCC(C1)N2Cc1cccs1 (stereo not drawn),"inconclusive: 6.31 µM [inhibitor, single point]"
12,CCn1c(-c2cc3ccccc3cc2O)n[nH]c1=S,"inconclusive: 8.91 µM [inhibitor, full curve, poor fit]"
13,Cc1ccc(-n2c(CCC(=O)O)ccc2-c2cccs2)cc1C,inactive
14,O=c1[nH]c(SCCOc2cccc3ccccc23)nc2ccccc12,inactive
15,C=CCNC(=O)CSc1cc([N+](=O)[O-])cc(S(=O)(=O)Cc2ccccc2)c1,"inconclusive: 28.2 µM [inhibitor, single point]"
16,Cc1ccc(OCC(=O)NCCS(=O)(=O)N2CCN(c3ccccc3)CC2)cc1,"inconclusive: 39.8 µM [inhibitor, single point]"
17,COC(=O)c1ccc(COc2nc(C)cc(C)c2C#N)o1,"inconclusive: 35.5 µM [inhibitor, single point]"
18,CC1CCCC(NC(=O)c2ccc3c(c2)N(Cc2ccccc2)C(=O)CS3=O)C1C (stereo not drawn),"inconclusive: 6.31 µM [inhibitor, full curve, poor fit]"
19,O=S(=O)(/N=C(/Nc1ccc(Cl)c(S(=O)(=O)Nc2ccccc2Cl)c1)c1ccc(F)cc1)c1ccccc1,"inconclusive: 2.51 µM [inhibitor, partial curve, poor fit]"
20,CCSc1nc(=O)n(-c2ccccc2)c(C)c1C(C)=O,"inconclusive: 0.708 µM [inhibitor, partial curve, poor fit]"
21,Cc1cc2cc3c(cc2nc1SCC(=O)Nc1nc(C)c(C)s1)OCO3,"inconclusive: 1.26 µM [inhibitor, partial curve, poor fit]"
